# The whole screen tested about 310,000 compounds, of which about 2,200 (0.71%) showed an effect of 50% or more. Effects have a minus sign here. This is one part of the list.
# Biological target: human ether-à-go-go-related gene (hERG) potassium channel (human, UniProt Q12809)
# Experiment: primary screen, population patch clamp on CHO cells stably expressing hERG
# Sequence of human ether-à-go-go-related gene (hERG) potassium channel (Q12809 whole entry, looked up): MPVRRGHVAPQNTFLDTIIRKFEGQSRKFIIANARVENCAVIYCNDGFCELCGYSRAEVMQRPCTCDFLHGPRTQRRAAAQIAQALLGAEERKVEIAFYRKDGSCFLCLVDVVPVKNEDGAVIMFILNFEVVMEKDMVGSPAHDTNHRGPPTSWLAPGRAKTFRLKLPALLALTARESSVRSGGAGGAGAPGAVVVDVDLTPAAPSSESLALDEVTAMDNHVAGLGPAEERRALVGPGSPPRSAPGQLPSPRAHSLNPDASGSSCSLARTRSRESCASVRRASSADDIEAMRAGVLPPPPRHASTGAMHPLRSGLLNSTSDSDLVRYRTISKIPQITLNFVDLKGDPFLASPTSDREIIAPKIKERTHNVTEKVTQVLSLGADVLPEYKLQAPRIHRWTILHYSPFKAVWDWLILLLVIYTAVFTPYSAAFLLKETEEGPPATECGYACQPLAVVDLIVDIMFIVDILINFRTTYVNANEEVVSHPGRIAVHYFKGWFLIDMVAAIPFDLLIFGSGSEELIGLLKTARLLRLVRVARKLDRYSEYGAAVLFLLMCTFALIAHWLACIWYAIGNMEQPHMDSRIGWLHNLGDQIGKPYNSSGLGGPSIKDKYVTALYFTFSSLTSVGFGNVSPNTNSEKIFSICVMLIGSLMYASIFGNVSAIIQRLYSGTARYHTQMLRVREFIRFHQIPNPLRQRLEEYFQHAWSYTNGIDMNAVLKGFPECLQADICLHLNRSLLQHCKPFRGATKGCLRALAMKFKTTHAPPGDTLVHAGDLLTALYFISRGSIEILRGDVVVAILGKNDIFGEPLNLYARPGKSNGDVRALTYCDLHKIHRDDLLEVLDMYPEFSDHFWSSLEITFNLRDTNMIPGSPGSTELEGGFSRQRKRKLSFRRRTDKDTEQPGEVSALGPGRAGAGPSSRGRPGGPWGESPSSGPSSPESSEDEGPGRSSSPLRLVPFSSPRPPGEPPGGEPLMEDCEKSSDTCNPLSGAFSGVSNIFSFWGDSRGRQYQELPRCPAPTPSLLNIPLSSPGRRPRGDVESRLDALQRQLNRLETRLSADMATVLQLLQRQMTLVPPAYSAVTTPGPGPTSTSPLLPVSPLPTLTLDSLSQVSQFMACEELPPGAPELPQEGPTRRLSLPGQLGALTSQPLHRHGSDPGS
row,SMILES,"hERG current change (%, negative = inhibition) at 1uM [%]"
1,COc1ccc(CNC(=O)CNC(=O)CNS(=O)(=O)c2ccc(C)c(C)c2)cc1,13.8
2,O=C(NNC(=O)c1ccc(-c2ccccc2)cc1)Nc1ccc(F)cc1F,12.7
3,CCc1ccc(NC(=O)c2cc(-c3ccc(OC)cc3)on2)cc1,-0.549
4,O=C(NCc1cccc(C(F)(F)F)c1)c1cccc(S(=O)(=O)N2CCN(Cc3ccccc3)CC2)c1,9.95
5,CC(C)CC1NC(=O)N(CC(=O)Nc2ccccc2-c2ccccc2)C1=O (stereo not drawn),-16.9
6,COc1ccc(C2c3c(-c4cc(Cl)c(C)cc4O)n[nH]c3C(=O)N2Cc2cccnc2)cc1OC (stereo not drawn),14.6
7,Cc1cccc(NC(=O)COC(=O)c2ccccn2)c1,15.4
8,CCOC(=O)C1=NOC(C(=O)NN(C)c2ncc(C(F)(F)F)cc2Cl)C1 (stereo not drawn),8.26
9,CN1CCN(C(=O)C2=C[C@@H](c3ccccc3)C[C@@H](OCc3ccc(CO)cc3)O2)CC1,13.5
10,CN(C)c1ccc(/C=N/NC(=O)C[n+]2ccccc2)cc1.[Cl-],16.5
11,Cc1nn(CC(=O)N2CCCC2)c(=O)c2nn(-c3ccccc3)c(C)c12,13.5
12,CCC(=O)Nc1ccc(N2CCN(C(=O)c3cccs3)CC2)cc1,3.02
13,COc1cc(OC)c(C2=NOC(C(=O)N3CCN(C(=O)c4ccco4)CC3)C2)cc1Cl (stereo not drawn),-12.8
14,O=C(O)C1C2C=CC(C2)C1C(=O)NCCc1ccccc1 (stereo not drawn),8.19
15,COc1cc(-c2cccs2)cc(=O)c2c(C)oc(C)c12,-2.79
16,O=C(COC(=O)c1cccnc1SC(F)F)NC1CC1,7.92
17,COc1cc2c(cc1NC(=O)c1cccc(Br)c1)CCCC2,-0.718
18,O=C(Nc1ccc(Oc2ccc3ccccc3c2)cc1)c1ccco1,7.79
19,O=C(Nc1ccc2nc(-c3ccco3)c(-c3ccco3)nc2c1)N1CCN(c2ccccn2)CC1,4.97
20,COc1ccc(NC(=O)COC(=O)CCNS(=O)(=O)c2ccc(Cl)cc2)cc1,3.54
21,Cc1ccc(/C=N\Nc2nc3ccc(Cl)cc3[nH]2)o1,3.42
22,CC(C)Sc1cc(Cl)nc(NC(=O)Nc2ccccc2)n1,17.4
23,COc1ccc(NC(=O)NNC(=O)C(C)Oc2ccc3ccccc3c2)cc1 (stereo not drawn),11.6

row,SMILES,"hERG current change (%, negative = inhibition) at 1uM [%]"
1,CSc1ccccc1C(=O)NCCS(=O)(=O)N1CCN(c2ccc(F)cc2)CC1,-16
2,O=C(Cc1cc(=O)[nH][nH]1)N/N=C/c1cccc2ccccc12,9.77
3,CCCNc1nc2c(c(=O)[nH]c(=O)n2C)n1Cc1cccc(Br)c1,8.17
4,O=C1C2CCCN2c2ccc(S(=O)(=O)N3CCOCC3)cc2N1Cc1ccccc1F (stereo not drawn),17.3
5,Cc1ccc(OCCNC(=O)CNC(=O)c2ccc(C)c(C)c2)cc1,4.24
6,CC(C(=O)O)n1ncc2ccccc2c1=O (stereo not drawn),9.08
7,CN(c1ccccc1)S(=O)(=O)c1ccc(C(=O)Nc2nnc(C3CC3)s2)cc1,8.07
8,Cc1nnc(SCC(=O)NC2CCCCC2)s1,11.3
9,Cc1ccc(NC(=O)COC(=O)Cc2csc(-c3cccc(F)c3)n2)cc1C,-7.18
10,CCC(CC)C(=O)Nc1ccccc1-n1cccc1,8.16
11,Cc1ccc(Cl)cc1NC(=O)c1ccc(Cn2cc(Cl)cn2)cc1,15.8
12,CCOC(=O)c1sc2ncn(/N=C/N(C)C)c(=O)c2c1C,10.3
13,CC12CCC(O)CC1=CCC1C2CCC2(C)C1CCC21CCC(=O)O1 (stereo not drawn),8.84
14,CN(c1ccccn1)c1ncnc2[nH]ncc12,6.34
15,O=C(NC1=NCCS1)[C@H](Cc1ccccc1)N1C(=O)c2ccccc2C1=O,15.9
16,Cc1ccc(OC(=O)COc2ccccc2C)c(-n2nc3ccccc3n2)c1,-2.47
17,CCOC(=O)C1CCN(S(=O)(=O)c2ccc(-n3cnnn3)c(C)c2)CC1,7.04
18,COc1cc(C(=O)Nc2cccc(C(C)=O)c2)cc(OC)c1OC,7.4
19,O=Cc1cccn1-c1ccc(O)cc1,19.5
20,CCOc1ccc(C2CC(c3ccc(OC)cc3)n3ncnc3N2)cc1 (stereo not drawn),7.93
21,COc1ccccc1N1CCN(C(=O)c2sc3nc(-c4ccc(F)cc4)cn3c2C)CC1,5.83
22,Cc1ccc2nc(C)c(C(=O)N/N=C/c3ccco3)cc2c1,6.29

# — publication PMC4336329 (PLoS ONE, 2015)
